Results as given in article PMC7693358.
No constants are given. Whether binding was seen depends on the method and setting. For part of these data: In cells and extracts the contact can be indirect. Some results given as binding are weak or reduced against the parent protein; the word gives no strength. Each block holds one molecule with its values, some of them ahead of it.

By UniProt entry, the sequences of proteins in these tests, tags left out.
UniProt Q8RWC9: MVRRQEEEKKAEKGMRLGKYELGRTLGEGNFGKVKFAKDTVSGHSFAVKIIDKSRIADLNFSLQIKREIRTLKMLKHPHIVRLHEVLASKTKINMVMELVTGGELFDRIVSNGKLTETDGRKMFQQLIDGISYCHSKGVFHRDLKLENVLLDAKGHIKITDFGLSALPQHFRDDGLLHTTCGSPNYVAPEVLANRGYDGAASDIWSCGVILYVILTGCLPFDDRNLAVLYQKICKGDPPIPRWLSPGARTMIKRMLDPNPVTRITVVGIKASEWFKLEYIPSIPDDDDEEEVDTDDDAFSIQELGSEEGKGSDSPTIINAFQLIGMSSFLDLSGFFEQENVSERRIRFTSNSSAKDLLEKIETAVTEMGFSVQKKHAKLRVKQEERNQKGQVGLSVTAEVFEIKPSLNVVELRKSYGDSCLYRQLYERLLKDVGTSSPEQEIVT
UniProt Q93VD3: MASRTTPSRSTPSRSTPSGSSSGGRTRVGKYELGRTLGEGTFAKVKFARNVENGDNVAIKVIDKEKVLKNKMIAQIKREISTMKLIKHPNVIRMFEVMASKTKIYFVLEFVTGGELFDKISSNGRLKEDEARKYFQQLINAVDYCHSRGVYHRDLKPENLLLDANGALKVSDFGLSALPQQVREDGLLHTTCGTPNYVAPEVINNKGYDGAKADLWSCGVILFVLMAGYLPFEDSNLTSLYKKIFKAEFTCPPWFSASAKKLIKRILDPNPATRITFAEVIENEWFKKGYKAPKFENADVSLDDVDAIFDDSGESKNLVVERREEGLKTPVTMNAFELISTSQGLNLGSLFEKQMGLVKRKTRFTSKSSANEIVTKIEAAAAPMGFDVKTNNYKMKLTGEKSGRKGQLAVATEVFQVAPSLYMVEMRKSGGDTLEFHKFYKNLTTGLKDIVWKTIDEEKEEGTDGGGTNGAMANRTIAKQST
UniProt Q9LDI3: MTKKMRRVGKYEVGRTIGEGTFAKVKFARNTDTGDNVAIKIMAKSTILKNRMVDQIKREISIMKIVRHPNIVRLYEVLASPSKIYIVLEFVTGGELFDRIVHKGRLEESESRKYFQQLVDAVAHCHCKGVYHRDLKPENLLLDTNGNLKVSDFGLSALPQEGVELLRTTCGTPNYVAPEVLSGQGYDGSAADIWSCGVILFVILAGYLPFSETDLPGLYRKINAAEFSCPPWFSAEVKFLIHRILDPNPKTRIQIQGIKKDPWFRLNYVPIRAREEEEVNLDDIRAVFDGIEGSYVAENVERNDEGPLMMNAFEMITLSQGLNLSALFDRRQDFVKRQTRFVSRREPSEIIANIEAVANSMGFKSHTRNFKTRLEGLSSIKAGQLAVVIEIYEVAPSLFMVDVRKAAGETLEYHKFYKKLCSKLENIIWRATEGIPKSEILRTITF
UniProt O48963: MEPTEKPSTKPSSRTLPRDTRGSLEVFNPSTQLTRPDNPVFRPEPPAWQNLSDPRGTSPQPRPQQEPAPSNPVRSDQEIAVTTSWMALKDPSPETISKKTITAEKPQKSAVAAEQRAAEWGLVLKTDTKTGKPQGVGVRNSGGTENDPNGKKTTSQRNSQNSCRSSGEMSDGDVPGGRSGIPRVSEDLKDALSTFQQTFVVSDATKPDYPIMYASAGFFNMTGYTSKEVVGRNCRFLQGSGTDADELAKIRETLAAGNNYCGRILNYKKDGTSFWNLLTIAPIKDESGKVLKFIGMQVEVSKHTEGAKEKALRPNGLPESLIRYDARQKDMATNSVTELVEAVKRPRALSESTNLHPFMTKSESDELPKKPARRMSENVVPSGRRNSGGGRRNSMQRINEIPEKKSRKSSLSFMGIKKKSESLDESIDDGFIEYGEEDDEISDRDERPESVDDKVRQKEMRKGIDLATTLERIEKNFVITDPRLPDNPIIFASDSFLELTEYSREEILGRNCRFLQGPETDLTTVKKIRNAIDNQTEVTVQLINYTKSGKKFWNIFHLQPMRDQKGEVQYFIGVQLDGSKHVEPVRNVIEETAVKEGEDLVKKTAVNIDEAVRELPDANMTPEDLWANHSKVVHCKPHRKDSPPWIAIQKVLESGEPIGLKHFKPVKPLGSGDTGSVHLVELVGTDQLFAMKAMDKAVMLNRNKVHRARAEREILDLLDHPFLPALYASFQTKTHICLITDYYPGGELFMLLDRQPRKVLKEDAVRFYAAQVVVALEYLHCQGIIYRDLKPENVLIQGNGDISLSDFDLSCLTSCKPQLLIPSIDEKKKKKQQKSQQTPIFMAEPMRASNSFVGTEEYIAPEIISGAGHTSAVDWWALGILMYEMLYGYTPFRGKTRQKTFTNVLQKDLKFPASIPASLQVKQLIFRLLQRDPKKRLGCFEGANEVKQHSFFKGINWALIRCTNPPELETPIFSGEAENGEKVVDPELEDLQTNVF
UniProt P93025: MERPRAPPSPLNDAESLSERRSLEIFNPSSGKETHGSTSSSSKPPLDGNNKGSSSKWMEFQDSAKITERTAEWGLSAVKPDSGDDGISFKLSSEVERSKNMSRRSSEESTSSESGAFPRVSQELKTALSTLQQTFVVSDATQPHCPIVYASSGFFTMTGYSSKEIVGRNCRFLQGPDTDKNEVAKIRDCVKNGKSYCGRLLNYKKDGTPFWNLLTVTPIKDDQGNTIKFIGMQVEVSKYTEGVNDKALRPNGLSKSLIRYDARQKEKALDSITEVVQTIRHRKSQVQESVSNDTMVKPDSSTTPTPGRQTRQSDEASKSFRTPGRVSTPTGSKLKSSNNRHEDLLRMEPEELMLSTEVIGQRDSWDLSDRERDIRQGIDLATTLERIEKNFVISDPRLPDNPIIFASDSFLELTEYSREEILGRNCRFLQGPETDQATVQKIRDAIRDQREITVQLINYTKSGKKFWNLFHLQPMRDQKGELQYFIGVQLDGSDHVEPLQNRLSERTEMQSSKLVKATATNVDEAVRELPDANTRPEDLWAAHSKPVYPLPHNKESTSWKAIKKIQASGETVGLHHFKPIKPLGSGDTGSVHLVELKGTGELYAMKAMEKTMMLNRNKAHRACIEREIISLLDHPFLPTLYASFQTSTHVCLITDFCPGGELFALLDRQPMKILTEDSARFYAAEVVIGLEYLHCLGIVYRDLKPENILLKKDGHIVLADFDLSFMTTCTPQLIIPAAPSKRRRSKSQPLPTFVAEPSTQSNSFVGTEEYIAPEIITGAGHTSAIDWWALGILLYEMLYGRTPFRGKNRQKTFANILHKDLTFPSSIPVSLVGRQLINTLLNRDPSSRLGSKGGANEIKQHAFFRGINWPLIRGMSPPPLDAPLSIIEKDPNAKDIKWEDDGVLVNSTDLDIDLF

Assays:
[1] = molecular target: FLAG-CIPK1 (recombinant, E. coli) (Arabidopsis thaliana) (UniProt Q8RWC9); assay: pull-down; FLAG-CIPK proteins purified from E. coli on anti-FLAG agarose beads, incubated with microsomal proteins (100 µg) from Arabidopsis seedlings for 2 h at 4°C; immunoblot with anti-phot1, anti-phot2 and anti-FLAG; only the target purified
[2] = molecular target: FLAG-CIPK23 (recombinant, E. coli) (Arabidopsis thaliana) (UniProt Q93VD3); assay: as above
[3] = molecular target: FLAG-CIPK24 (recombinant, E. coli) (Arabidopsis thaliana) (UniProt Q9LDI3); assay: as above
[4] = molecular target: FLAG-tagged phototropin 1 (FLAG-phot1) (Arabidopsis thaliana) (UniProt O48963); assay: AlphaScreen or HTRF; FLAG-phot1 or FLAG-phot2 (bait) on anti-IgG acceptor beads through anti-FLAG antibody, biotinylated protein (prey) on streptavidin-coated donor beads; 5 µl of each wheat germ synthesis mixture in 20 µl of 50 mM Tris-HCl pH 7.6, 100 mM potassium acetate, 10 mM MgCl2, 0.1 mM DTT, 1 mg/ml BSA; 23°C, 1 h
[5] = molecular target: FLAG-tagged phototropin 2 (FLAG-phot2) (Arabidopsis thaliana) (UniProt P93025); assay: as above
[6] = molecular target: CIPK23 fused to the N- or C-terminal half of YFP (BiFC) (Arabidopsis thaliana) (UniProt Q93VD3); assay: split reporter; BiFC: nYFP and cYFP fusions (pSPYNE-35S, pSPYCE-35S) co-expressed via Agrobacterium in Nicotiana benthamiana leaf epidermal cells; confocal microscopy 2.5 days after infiltration
[7] = molecular target: phot1 fused to the N- or C-terminal half of YFP (BiFC) (Arabidopsis thaliana) (UniProt O48963); assay: as above
[8] = molecular target: phot2 fused to the N- or C-terminal half of YFP (BiFC) (Arabidopsis thaliana) (UniProt P93025); assay: as above

binding [1]: no binding
binding [2]: binds
binding [3]: no binding
Molecule: phototropin 2 (phot2), endogenous in Arabidopsis microsomal membranes (from UniProt P93025 1-915)

binding [4]: binds
B1: NON-PHOTOTROPIC HYPOCOTYL 3 (NPH3) (protein, UniProt Q9FMF5 1-746)
chain: MMWESESDGGVGVGGGGGREYGDGVLSSNKHGGVKTDGFELRGQSWFVATDIPSDLLVKIGDMNFHLHKYPLLSRSGKMNRLIYESRDPDPTILILDDLPGGPEAFELASKFCYGVPVDLTATNISGLRCAAEYLEMTEDLEEGNLIFKTEAFLSYVVLSSWRDSILVLKSCEKLSPWAENLQIVRRCSESIAWKACSNPKGIRWAYTGKAPSPSTTNFAGSSPRWNESKDSSFYCSPSRNTNSQPVPPDWWFEDVSILRIDHFVRVITAIKVKGMRFELLGAVIMHYAGKWLPGLIKEGGVAIAPAMSSAIGGGLGLGGDEMSISCGSNSSGGSSGPDWKGGLHMVLSAGKTNGHQDSVACLAGLGISPKDQRMIVESLISIIPPQKDSVTCSFLLRLLRAANMLKVAPALITELEKRVGMQFEQATLQDLLIPGYNNKGETMYDVDLVQRLLEHFLVQEQTEGSSPSRMSPSPSQSMYADIPRGNNNNGGGGGGNNQNAKMRVARLVDSYLTEVARDRNLPLTKFQVLAEALPESARTCDDGLYRAIDSYLKAHPTLSEHERKRLCRVMDCQKLSMDACMHAAQNERLPLRVVVQVLFSEQVKISNALANTSLKESTTLGEAMGTYQPMIPNRKTLIEATPQSFQEGWAAAKKDINTLKFELETVKTKYVELQNEMEVMQRQFEKTGKVKNTPSSSAWTSGWKKLSKLTKMSGQESHDISSGGEQAGVDHPPPRKPRRWRNSIS

More lines, now with the values behind:

Molecule: CBL-interacting protein kinase 23 (CIPK23), biotin-labelled, from the Arabidopsis protein kinase library (from UniProt Q93VD3 1-482)
binding [4]: binds
binding [5]: binds

Molecule: CIPK23 fused to the N- or C-terminal half of YFP (BiFC) (from UniProt Q93VD3 1-482)
binding [6]: binds
binding [7]: binds
binding [8]: binds
